Certain results were filed several times, with different values. The list is limited to them. The source may hold further records. Values that stand side by side read as repeated measurements on other runs, samples or individuals; one of them may be the mean.
Target: T1, BACE1 (Homo sapiens, UniProt P56817)
T1 construct: purchased R&D 931-AS-050
Experiment: in vitro BACE inhibition assay (Primary BACE1 IC50)
Assay type: biochemical
Conditions: Table 4; several values in a cell = several determinations
Description: ABBI Assay: APP Binding BACE Inhibitor (ABBI) activity of any of the compounds described herein can readily be verified using, for example, assays described herein. Basically, in certain embodiments a pair the assays are utilized to identify ABBI compounds that inhibit BACE cleavage of the MBP-C125 APP substrate, resulting in the inhibition of the production of C99 and the β-site peptide substrate (P5-P5′) and also interacts with APP, for example, as measured by surface plasmon resonance (SPR) analysis. In one illustrative embodiment, an MBP-C125 APP695 wt fusion protein can be used as one of the substrates and the second substrate can be the commercially available P5-P5′ fluorescence substrate.

T1 sequence (P56817 46-457 limits assumed): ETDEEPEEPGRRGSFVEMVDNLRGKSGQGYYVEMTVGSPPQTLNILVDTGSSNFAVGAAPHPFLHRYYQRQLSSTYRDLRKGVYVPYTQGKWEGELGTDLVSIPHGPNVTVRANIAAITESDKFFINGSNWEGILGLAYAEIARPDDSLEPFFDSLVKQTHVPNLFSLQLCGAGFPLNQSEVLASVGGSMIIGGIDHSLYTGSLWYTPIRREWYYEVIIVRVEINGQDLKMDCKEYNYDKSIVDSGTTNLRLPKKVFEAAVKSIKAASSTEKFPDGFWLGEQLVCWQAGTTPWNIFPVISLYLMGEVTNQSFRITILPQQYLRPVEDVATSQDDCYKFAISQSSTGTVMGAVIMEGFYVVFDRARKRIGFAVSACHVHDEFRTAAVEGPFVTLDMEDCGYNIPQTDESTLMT

Row | SMILES | IC50
1 | Cc1cc(C2(c3cc(F)cc(F)c3)N=C(N)N(C)C2=O)ccc1OC(F)F (centres unmarked) [FAH-03] | 530 nM, 4.5 µM, 5.7 µM [one cell]
2 | Cc1cc(C2(c3cccc(F)c3)N=C(N)N(C)C2=O)ccc1OC(F)F (centres unmarked) [FAH-17] | 150 nM, 90 nM, 370 nM, 780 nM, 1.3 µM, 820 nM [one cell]

From US20190077766A1, “Compositions For APP-Selective BACE Inhibition And Uses Therefor” (NantNeuro, LLC, priority 2015, published 2019)
